Sequences and labels used below:
B1: UBA5_Y53 (peptide)
chain: VDSNPYSRLMA
B2: TUBA1A_Y399_R402C (peptide)
chain: KFDLMYAKCAF
B3: UFSP2_Y285_YF (peptide)
chain: VVQGIYGFHHF
B4: TUBA3E_Y103_YF (peptide)
chain: DAASNYARGHF
B5: TUBB3_Y208_E205K (peptide)
chain: DNKALYDICFR
B6: UNC13D_Y61 (peptide)
chain: YEDALYTVLHR
B7: UNG_Y8_Q4R (peptide)
chain: GRKTLYSFFSP
B8: UNC13D_Y56 (peptide)
chain: QRALLYEDALY
B9: UGGT2_Y823_A821T (peptide)
chain: IATTIYSGDKI
B10: UPB1_Y362_YF (peptide)
chain: KMTGRYEMFAR
B11: TUBA1A_Y262 (peptide)
chain: TNLVPYPRIHF
B12: UBD_Y161_C162F (peptide)
chain: LFLACYFIGGG
B13: UCP2_Y79_R76Q (peptide)
chain: GPQSLYNGLVA
B14: UBE3A_Y127_T129K (peptide)
chain: FKDVTYLKEEK
B15: UBA7_Y524_N527K (peptide)
chain: TTEHIYGDKFF
B16: TUBB_Y222 (peptide)
chain: LTTPTYGDLNH
B17: TTR_Y125_G121S (peptide)
chain: SSPRRYTIAAL
B18: TYROBP_Y111_Y111H (peptide)
chain: NTQRPHYKGGG

The list shows a part of the results. Rule as the data show it: active = 3.2 or more and inactive = the rest. Only a few entries rise above the background.
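Also: displayed peptides selected on beads carrying the immobilized SH2 domain, with library peptides lacking any tyrosine serving as negative controls.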

The first assay deals with SHP2 C-SH2 domain E139D. The experiment in a line: enrichment score (SH2-bound / input frequency) (ratio); bacterial display of known human phosphotyrosine sites (pTyr-Var adds point mutants) read by sequencing; higher = stronger binding; tyrosines were phosphorylated by kinases first. Conditions: peptide library: pTyr-Var.
Take B1: the enrichment score is inactive: 0.753.

Consider B2, for which the enrichment score was inactive: 0.662.

On to B3, for which the enrichment score was inactive: 1.68.

Take B4: the enrichment score was inactive: 0.631.

Turning to B5, the enrichment score was inactive: 0.825.

Consider B6, for which the enrichment score was inactive: 0.939.

Consider B7, for which the enrichment score was inactive: 1.51.

As to B8, the enrichment score was inactive: 0.889.

In the case of B9, the enrichment score was inactive: 0.622.

With B10, the enrichment score was inactive: 1.52.

B11: the enrichment score was inactive: 1.05.

On to B12, for which the enrichment score is active: 3.59.

Turning to B13, the enrichment score was inactive: 0.585.

Take B14: the enrichment score was inactive: 0.44.

B15: the enrichment score was inactive: 0.746.

For B16, the enrichment score is inactive: 0.429.

Regarding B17, the enrichment score was inactive: 0.629.

Take B18: the enrichment score is inactive: 1.06.

The target of the next assay is SHP2 C-SH2 domain wild-type. The assay is described as above. Particulars: peptide library: pTyr-Var.
Regarding B1, the enrichment score was inactive: 1.5.

Take B2: the enrichment score was inactive: 0.826.

As to B3, the enrichment score is inactive: 1.36.

With B4, the enrichment score is inactive: 0.526.

Regarding B5, the enrichment score was inactive: 0.896.

Turning to B6, the enrichment score was inactive: 1.1.

As for B7, the enrichment score is inactive: 0.875.

B8: the enrichment score is inactive: 0.759.

For the molecule B9, the enrichment score was inactive: 0.801.

For the molecule B10, the enrichment score was inactive: 1.13.

As for B11, the enrichment score was inactive: 0.932.

With B12, the enrichment score is active: 4.

For B13, the enrichment score was inactive: 0.576.

In the case of B14, the enrichment score was inactive: 0.751.

For B15, the enrichment score is inactive: 0.551.

In the case of B16, the enrichment score was inactive: 1.33.

As to B17, the enrichment score was inactive: 0.548.

B18: the enrichment score was inactive: 0.925.

For the next assay, the target named is SHP2 N-SH2 domain L43F. The description is as above. Particulars: peptide library: pTyr-Var.
For the molecule B1, the enrichment score was inactive: 0.662.

Turning to B2, the enrichment score was inactive: 0.904.

B3: the enrichment score was inactive: 1.64.

As for B4, the enrichment score is inactive: 0.758.

With B5, the enrichment score was inactive: 0.932.

Regarding B6, the enrichment score was inactive: 1.01.

Consider B7, for which the enrichment score is inactive: 1.2.

In the case of B8, the enrichment score was inactive: 1.01.

With B9, the enrichment score was inactive: 0.743.

Take B10: the enrichment score is inactive: 1.19.

For the molecule B11, the enrichment score was inactive: 1.19.

B12: the enrichment score was inactive: 2.96.

As to B13, the enrichment score was inactive: 0.632.

Consider B14, for which the enrichment score was inactive: 0.685.

Consider B15, for which the enrichment score is inactive: 0.686.

On to B16, for which the enrichment score was inactive: 0.888.

In the case of B17, the enrichment score was inactive: 0.606.

Turning to B18, the enrichment score was inactive: 1.01.

The next assay addresses SHP2 N-SH2 domain T42A. The assay is described as above. Particulars: peptide library: pTyr-Var.
As to B1, the enrichment score is inactive: 0.43.

Turning to B2, the enrichment score was inactive: 1.03.

Regarding B3, the enrichment score was inactive: 1.73.

For the molecule B4, the enrichment score is inactive: 0.68.

In the case of B5, the enrichment score is inactive: 0.821.

On to B6, for which the enrichment score was inactive: 0.956.

With B7, the enrichment score was inactive: 0.959.

In the case of B8, the enrichment score was inactive: 0.551.

As to B9, the enrichment score was inactive: 0.559.

Consider B10, for which the enrichment score is inactive: 1.27.

Turning to B11, the enrichment score was inactive: 0.884.

As to B12, the enrichment score was inactive: 2.9.

On to B13, for which the enrichment score was inactive: 0.502.

B14: the enrichment score is inactive: 0.941.

As for B15, the enrichment score was inactive: 0.651.

Take B16: the enrichment score was inactive: 0.644.

As for B17, the enrichment score was inactive: 0.599.

Consider B18, for which the enrichment score is inactive: 0.845.

For a further assay, the target named is SHP2 N-SH2 domain T52S. The description is as above. Conditions: peptide library: pTyr-Var.
Regarding B1, the enrichment score was inactive: 0.677.

As to B2, the enrichment score is inactive: 0.993.

In the case of B3, the enrichment score was inactive: 1.57.

For the molecule B4, the enrichment score was inactive: 0.657.

Regarding B5, the enrichment score was inactive: 0.774.

B6: the enrichment score was inactive: 0.908.

For B7, the enrichment score is inactive: 1.2.

Take B8: the enrichment score is inactive: 0.648.

B9: the enrichment score is inactive: 0.842.

For the molecule B10, the enrichment score is inactive: 1.37.

Turning to B11, the enrichment score is inactive: 1.01.

Take B12: the enrichment score is inactive: 3.04.

On to B13, for which the enrichment score was inactive: 0.455.

Turning to B14, the enrichment score is inactive: 0.705.

Regarding B15, the enrichment score is inactive: 0.685.

As for B16, the enrichment score is inactive: 0.985.

As to B17, the enrichment score was inactive: 0.553.

On to B18, for which the enrichment score is inactive: 0.883.

The target of the next assay is SHP2 N-SH2 domain wild-type. Described as above. Conditions: peptide library: pTyr-Var.
Turning to B1, the enrichment score is inactive: 0.526.

With B2, the enrichment score is inactive: 1.21.

B3: the enrichment score was inactive: 1.52.

As for B4, the enrichment score is inactive: 0.568.

In the case of B5, the enrichment score was inactive: 1.4.

For the molecule B6, the enrichment score was inactive: 1.08.

In the case of B7, the enrichment score is inactive: 1.28.

Take B8: the enrichment score is inactive: 0.903.

In the case of B9, the enrichment score was inactive: 0.835.

Take B10: the enrichment score is inactive: 1.38.

With B11, the enrichment score was inactive: 1.09.

With B12, the enrichment score is inactive: 3.03.

B13: the enrichment score was inactive: 0.595.

On to B14, for which the enrichment score was inactive: 0.665.

As to B15, the enrichment score was inactive: 0.705.

In the case of B16, the enrichment score was inactive: 1.24.

Turning to B17, the enrichment score was inactive: 0.579.

In the case of B18, the enrichment score was inactive: 1.15.

Values taken from the supplement of paper PMC10369915.
